# Measurements published in PubChem BioAssay (NCATS).
# The inconclusive results got no clear call from the source; some entries with a clear call stand among them for comparison. Where the call is inconclusive, the potency comes from a doubtful curve fit. The source made the active and inactive calls. The call rests on the fitted dose curve; in most records, active means well fitted curve in the direction sought with a large enough effect; inconclusive means small, poorly fitted or top-dose-only effect, or another doubt; inactive means no such curve, though single readings can be large; an effect the other way counts as inactive or inconclusive.
# Tests used:
# [1] = target: Retinaldehyde dehydrogenase 3 (Homo sapiens) (UniProt P47895); test: qHTS for Inhibitors of the Aldehyde Dehydrogenase Family (ALDH1A3) Primary screen (AID 2061315); settings: ALDH inhibition qHTS; activity change, negative = inhibition: at 56 µM (top of the series) unless noted;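 on activity change, negative = inhibition: plate controls were DMSO vehicle for no effect and reference inhibitor for full effect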
# [2] = BET inhibitor-based combinations targeting novel dependencies in MECOM-rearranged (r) AML: OCI-AML3 cell line (AID 2202232); settings: CellTiter-Glo luminescence, 48 h; Potency: OCI-AML3 viability; viability (% of control): at 46 µM (top of the series); further: nearly all actives have a fitted effect of over 35% in size;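 on viability (% of control): plate controls were DMSO vehicle wells for no effect and wells without cells for full effect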
# In short: (§1)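 A 48 hr incubation preceded viability reading by CellTiter-Glo, with 15 min room-temperature development. Dose series had 11 points; normalization used DMSO and empty wells; AUC was computed and mean-centered per line as Z-AUC.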
# [3] = BET inhibitor-based combinations targeting novel dependencies in MECOM-rearranged (r) AML: MV-4-11 cell line (AID 2202233); settings: MV-4-11 AML viability, CellTiter-Glo luminescence, 48 h; viability, % of control: at 46 µM (top of the series) unless noted; further: nearly all actives have a fitted effect of over 45% in size
# In short: (§2)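 Each compound is tested in an 11-point concentration series against 500 seeded cells/well for 48 hr. The luminescent viability signal is normalized to DMSO and blank wells, then reduced to AUC and a cell-line-centred Z-AUC.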
# [4] = BET inhibitor-based combinations targeting novel dependencies in MECOM-rearranged (r) AML: AML-191 cell line (AID 2202236; further: nearly all actives have a fitted effect of over 35% in size)
# In short: as §1
# [5] = BET inhibitor-based combinations targeting novel dependencies in MECOM-rearranged (r) AML: AML-194 cell line (AID 2202237; further: nearly all actives have a fitted effect of over 40% in size;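 on viability (% of control): plate controls were vehicle wells for no effect and wells without cells for full effect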)
# In short: as §1
# [6] = BET inhibitor-based combinations targeting novel dependencies in MECOM-rearranged (r) AML: SET-2 cell line (AID 2202231); settings: SET-2 AML cells viability, CellTiter-Glo luminescence, 48 h; viability: active compounds read low, concentration not given here; further: nearly all actives have a fitted effect of over 35% in size;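 on viability: plate controls were DMSO treated cells for no effect and wells without cells for full effect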
# In short: as §1
# [7] = BET inhibitor-based combinations targeting novel dependencies in MECOM-rearranged (r) AML: HNT-34 cell line (AID 2202234); further: nearly all actives have a fitted effect of over 35% in size;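 on viability (% of control): plate controls were vehicle wells for no effect and cell-free wells for full effect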
# In short: as §2
# [8] = BET inhibitor-based combinations targeting novel dependencies in MECOM-rearranged (r) AML: UCSD-AML1 cell line (AID 2202235); settings: UCSD-AML1 AML cells viability, CellTiter-Glo, 48 h; viability (% of control): at 46 µM (top of the series); further: nearly all actives have a fitted effect of over 40% in size;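 on viability (% of control): plate controls were DMSO vehicle wells for no effect and blank wells for full effect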
# In short: as §2
# [9] = target: Aldehyde dehydrogenase 1A1 (Homo sapiens) (UniProt P00352); test: qHTS for Inhibitors of the Aldehyde Dehydrogenase Family (ALDH1A1) Confirmatory screens (AID 2061316); settings: activity change, negative = inhibition: at 47.3 µM (top of the series); further: nearly all actives have a fitted effect of over 65% in size; on activity change, negative = inhibition: on the % scale 0 is the no-effect control and ±100 the full control effect
# Potency means the concentration at half of the fitted maximal effect; tags describe the fitted curve by direction and shape.
smiles,measurement,setting,value
CC[C@@H](C)Nc1cc(C(=O)NC2CC3CCC(C2)N3c2ccc(C(=O)C3CC3)cn2)c(C)cc1C(N)=O (some centres not stated),Potency,[1],inactive
same,Potency,[2],active: 0.166 µM
same,Potency,[3],active: 0.0661 µM
same,Potency,[4],active: 0.209 µM
same,Potency,[5],active: 0.118 µM
COc1ccc(Cn2ccc3ccc(C(=O)NO)cc32)cc1,Potency,[1],"inconclusive: 12.6 µM [inhibitor, partial curve, poor fit]"
same,Potency,[6],"inconclusive: 37.2 µM [inhibitor, single point]"
same,Potency,[2],"inconclusive: 1.86 µM [inhibitor, partial curve, poor fit]"
same,Potency,[7],"inconclusive: 26.3 µM [inhibitor, single point]"
same,Potency,[8],"inconclusive: 23.5 µM [inhibitor, single point]"
same,Potency,[4],"inconclusive: 18.6 µM [inhibitor, partial curve]"
Cc1nnn(C)c1-c1cnc2c3ccc(C(C)(C)O)cc3n([C@H](c3ccccc3)C3CCOCC3)c2c1,Potency,[6],active: 0.0148 µM
Cn1c2cc(S(C)=O)sc2c2cnn(Cc3cccc(N)c3)c(=O)c21 (configuration not stated),Potency,[1],"inconclusive: 22.4 µM [inhibitor, partial curve, poor fit]"
same,viability,[6],inactive: 104%
same,Potency,[2],inactive
same,Potency,[7],inactive
same,Potency,[8],inactive
CCC[C@H](NC(=O)/C(C#N)=C/c1cccc(Br)n1)c1ccccc1,Potency,[6],active: 4.17 µM
CC[C@@]1(O)C(=O)OCc2c1cc1n(c2=O)Cc2c-1nc1cc(F)c(C)c3c1c2[C@@H](N)CC3,Potency,[6],active: 0.0037 µM
Cc1cc(C)n2ncc(C(=O)Nc3ccc4c(c3)OCO4)c2n1,Potency,[9],"inconclusive: 22.5 µM [inhibitor, partial curve]"
O=C(NCc1ccc(S(=O)(=O)c2cccc(C(F)(F)F)c2)cc1)c1cnc2[nH]ncc2c1,Potency,[1],inactive
same,Potency,[5],active: 0.742 µM
Oc1cc(Nc2ccccc2)cc2cccnc12,Potency,[1],"inconclusive: 1.41 µM [inhibitor, full curve, poor fit]"
same,Potency,[9],"inconclusive: 0.798 µM [inhibitor, full curve]"
CNC(=O)c1ccccc1Nc1nc(Nc2ccc(N3CCOCC3)cc2OC)ncc1Cl,Potency,[1],"inconclusive: 7.08 µM [inhibitor, single point]"
same,Potency,[2],active: 0.833 µM
same,Potency,[4],"inconclusive: 3.32 µM [inhibitor, full curve]"
same,Potency,[5],"inconclusive: 2.95 µM [inhibitor, full curve]"
C=CCNc1oc(-c2cccs2)nc1C#N,Potency,[9],inactive
OC1CCC(Oc2cccc3cnc(Nc4ccc5nc[nH]c5c4)nc23)CC1 (configuration not stated),Potency,[6],"inconclusive: 1.48 µM [inhibitor, full curve]"
COc1ccc2[nH]c(S(=O)Cc3ncc(C)c(OC)c3C)nc2c1 (configuration not stated),Potency,[1],"inconclusive: 39.8 µM [inhibitor, single point]"
same,viability,[6],inactive: 97.7%
same,Potency,[3],"inconclusive: 18.6 µM [inhibitor, partial curve, poor fit]"
same,Potency,[5],inactive
Cc1c(F)cc(C(=O)NC2CC2)cc1-c1c(F)cn2c(C(C)(C)C)nnc2c1F,Potency,[1],inactive
same,Potency,[2],inactive
same,Potency,[3],"inconclusive: 0.0053 µM [inhibitor, full curve, poor fit]"
Cc1nc2ccc(-n3ncc(C(=O)c4cc5ccccc5[nH]4)c3N)cc2[nH]1,Potency,[1],inactive
same,Potency,[2],"inconclusive: 10.5 µM [inhibitor, partial curve]"
same,Potency,[7],"inconclusive: 20.9 µM [inhibitor, partial curve]"
same,Potency,[8],"inconclusive: 14.8 µM [inhibitor, partial curve]"
same,Potency,[4],"inconclusive: 8.33 µM [inhibitor, full curve]"
C[C@@H]1CCN(C(=O)CC#N)C[C@@H]1N(C)c1ncnc2[nH]ccc12,Potency,[1],inactive
same,Potency,[6],active: 1.48 µM
same,Potency,[2],"inconclusive: 11.8 µM [inhibitor, single point]"
same,Potency,[3],"inconclusive: 18.6 µM [inhibitor, partial curve]"
same,Potency,[7],"inconclusive: 20.9 µM [inhibitor, partial curve]"
same,Potency,[8],active: 0.059 µM
same,Potency,[4],"inconclusive: 6.61 µM [inhibitor, partial curve]"
same,Potency,[5],"inconclusive: 0.235 µM [inhibitor, partial curve, poor fit]"
Cc1cnc(C(=O)O)c[n+]1[O-],viability,[6],inactive: 122%
CC(=O)N1CCC(Nc2cc(C(=O)NC[C@H](O)CN3CCc4ccccc4C3)ncn2)CC1,Potency,[6],"inconclusive: 1.86 µM [inhibitor, full curve, poor fit]"
